Results on 44 sequences are retold here after the supplement of paper PMC11417369.

This is one part of the list.

The assay relates to PfHDP1 homeodomain (GST-tagged). Nature of the assay: gcPBM binding intensity (ln(normalized median fluorescence intensity)); higher = stronger DNA binding. The gist of the method: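 Each value is the highest Masliner-normalised natural-log median intensity across replicate spots of either orientation of a probe. The probes were primer-extended double-stranded 36-bp intergenic genomic sequences on an Agilent 4 × 180k array, alongside negative controls, exposed for 1 h to GST-tagged P. falciparum DNA-binding domains expressed in E. coli. Bound protein was picked up with Alexa488 anti-GST antibody and scanned at 488 nm.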
With “ATAAATATGGAGCACACACACATAAACATACATATA [CACACA_site421]”, the “gcPBM binding intensity (ln)” value worked out at 7.49. Consider “ATTTTTATTCTTATTACACACCTAAATATAAAATAT [CACACA_site2064]”, for which the “gcPBM binding intensity (ln)” value came out at 6.88. As for “TTTATATTTATATTGGGTACATAAAAAGCTTGAAAT [XGTACX_site8248]”, the “gcPBM binding intensity (ln)” value was found to be 6.27. Regarding “ATTTTTCAATTATGTAGTACATTGATATTTTCATTT [XGTACX_site5369]”, the “gcPBM binding intensity (ln)” value turned out to be 6.26. With “ACCCCCATATTCTTTTTACACACTTGAATAAAAAAT [CACACA_site8319]”, the “gcPBM binding intensity (ln)” value came out at 7.29. With “ATTCATTTTATTTTTTCACACACACCGATATATATA [CACACA_site9097]”, the “gcPBM binding intensity (ln)” value amounted to 6.96. In the case of “TTTATTTGGACATATACACACTTAAATATGTTTATT [CACACA_site6021]” it was 6.67; in that of “TTTATTTTGTTTTCTTGTACATAAATAATTACATAT [XGTACX_site4227]”, 6.68. Take “TAAATACAAGTAAAAAGTACAGAAAAATTATATATA [XGTACX_site1758]”: the “gcPBM binding intensity (ln)” value is 6.45. On to “TGATTCACTATAGTAGTGCATATTATATATATATAT [GTGCAC_site9975]”, for which the “gcPBM binding intensity (ln)” value was 9.23.

“TATAATAATTCATAATGTACTTTTATCAAAAAAGTA [XGTACX_site6868]”: the “gcPBM binding intensity (ln)” value was 6.05. In the case of “AAGAGAAATGGGCACACACACACATATTATAGATAT [CACACA_site6828]” it was 6.88. For the sequence “TATAAAAAATTCAATACACACCATATATAAATATAT [CACACA_site6060]”, the “gcPBM binding intensity (ln)” value was determined as 6.43.

As to “CAAATACACGGACACACACACACAAAAAAAAAAAAA [CACACA_site6385]”, the “gcPBM binding intensity (ln)” value amounted to 6.88.

On to “AAATTATTGTAAAATAGTACAGTGAAACATAAAGTT [XGTACX_site589]”, for which the “gcPBM binding intensity (ln)” value amounted to 6.48. “ATGTGCACATGTAGAAGTACTTTTTCTTAAAATACT [XGTACX_site8341]”: the “gcPBM binding intensity (ln)” value came out at 10.9. TATGTTTTATATAAGATGCACTTTTGTTATGCTTCA: the “gcPBM binding intensity (ln)” value stood at 7.51. “AAAAAAAAATATATATATATATATATATAATAAAAA [CACACA_negctrl_site639]”: the “gcPBM binding intensity (ln)” value worked out at 6.75. On to “ATTTATGTTATTGTATGTACACAATATAATGTTATT [XGTACX_site5657]”, for which the “gcPBM binding intensity (ln)” value is 6.56. Consider “ATTCTACACGCACATACACACATATAAATATAAATA [CACACA_site7582]”, for which the “gcPBM binding intensity (ln)” value is 8.16. As to “ACACAAAAATAGTTTTTTATATTGTTAACCTTATAT [XGTACX_negctrl_site123]”, the “gcPBM binding intensity (ln)” value came out at 6.58.

As to “ATAATATATATGAAATGTACATAAATTTAATGCGAC [XGTACX_site5394]”, the “gcPBM binding intensity (ln)” value worked out at 7.45. Turning to “ATATTTTACATATTTGCACACATATATTTAAATACA [CACACA_site4628]”, the “gcPBM binding intensity (ln)” value worked out at 10.3. “TAAAAAGTACATTATTCATGGCCTATTACATTTTTT [GTGCAC_negctrl_site282]”: the “gcPBM binding intensity (ln)” value came to 6.41. For the sequence “AAAAAAAAAAAATGTGCACACGCGTACAGACAAAAA [CACACA_site2005]”, the “gcPBM binding intensity (ln)” value was 9.43.

For the sequence “ATTTATATTTTTTAATGTACATTTATATGTATACAA [XGTACX_site4555]”, the “gcPBM binding intensity (ln)” value was 6.82. Take “CGATATTCTAAGGATAGTACATAATAAAATAGAGTA [XGTACX_site4224]”: the “gcPBM binding intensity (ln)” value is 6.46. “TAAAATAGAAATATATGTACATATATATATGTATAT [XGTACX_site4134]”: the “gcPBM binding intensity (ln)” value was determined as 6.4. Regarding “TTTTTATTCAACAAAAATATCAAACATAATTATAAA [CACACA_negctrl_site616]”, the “gcPBM binding intensity (ln)” value was found to be 6.86.

In the case of “AATATTTATATTTACACACACATAATACATATATGT [CACACA_site33]”, the “gcPBM binding intensity (ln)” value was 6.55. For the sequence “ATATACAACTAAAGAACACACATCATTGTTCATTGG [CACACA_site3681]”, the “gcPBM binding intensity (ln)” value was 6.42. “ATTTTTATGTCTTTCTATAAATCGAAAATATACATA [CACACA_negctrl_site477]”: the “gcPBM binding intensity (ln)” value is 6.29. Under “TTCCTTTAACCCTGCACACATACATACATTTATATG [CACACA_site3953]” stands 8.51; under “AAAAAACGCACTCGTACACACATATTTTCTTTCTAA [CACACA_site3089]”, 7.18. As to “AATATTTACCAGAAAATAAAAATATGTATATATATA [CACACA_negctrl_site351]”, the “gcPBM binding intensity (ln)” value is 7.56. With “TTAATTACACAAAAAAGTACTTGATATTGTTTATTA [XGTACX_site3449]”, the “gcPBM binding intensity (ln)” value is 6.18.

Regarding “ATATAATCAACTGCAAAGGTTTAAAAGGAAAAAATA [CACACA_negctrl_site989]”, the “gcPBM binding intensity (ln)” value came out at 6.43. Turning to “TCCTTAGAAATATTGATCATAAACTGGAAAGGTATA [XGTACX_negctrl_site354]”, the “gcPBM binding intensity (ln)” value turned out to be 6.39. For the sequence “TGTATTATTAATATTTGTACGTAATAATAAAAACAT [XGTACX_site3716]”, the “gcPBM binding intensity (ln)” value came to 6.51. For “TGGAAACAAAAACACACACACAAAAAAAAAAAAAAA [CACACA_site3209]”, the “gcPBM binding intensity (ln)” value was 6.27. For “GAAATATATAAATTGACACACACATATATACATATA [CACACA_site8323]”, the “gcPBM binding intensity (ln)” value came to 6.58. In the case of “ATTCAAAATAATCACAGTACACATGAGATTATCTTT [XGTACX_site2197]” it was 6.23; in that of “TAATTTCTTATGTATTGTACAAATAATATATTATTT [XGTACX_site3066]”, 6.9; in that of “TTATTGAAAAACATAATATCTAAGAGGGTAATATAT [GTGCAC_negctrl_site599]”, 6.4.
